# From PubChem BioAssay (Tox21)
# Values joined by “and” are separate entries in the source; they are usually repeats but may differ in a detail not shown here. Equal values may be shown once. This list was built around the results that the source calls inconclusive (neither active nor inactive); the mix of calls is not that of the screen. Potencies of inconclusive entries are doubtful fits and often do not repeat. Active and inactive are the calls of the source. Calls come from the whole dose curve; as a rule, active = well fitted activation curve with a large enough effect in the signal ratio in the repeat runs (not every such curve was filed as active); inconclusive = weak or mixed curves, or effect the other way; inactive = flat fitted curve, though single readings scatter; the % refers to the signal ratio.
# Biological target: Bile acid receptor (Homo sapiens) (UniProt Q96RI1)
# Sequence of UniProt Q96RI1 (Q96RI1 whole entry, looked up): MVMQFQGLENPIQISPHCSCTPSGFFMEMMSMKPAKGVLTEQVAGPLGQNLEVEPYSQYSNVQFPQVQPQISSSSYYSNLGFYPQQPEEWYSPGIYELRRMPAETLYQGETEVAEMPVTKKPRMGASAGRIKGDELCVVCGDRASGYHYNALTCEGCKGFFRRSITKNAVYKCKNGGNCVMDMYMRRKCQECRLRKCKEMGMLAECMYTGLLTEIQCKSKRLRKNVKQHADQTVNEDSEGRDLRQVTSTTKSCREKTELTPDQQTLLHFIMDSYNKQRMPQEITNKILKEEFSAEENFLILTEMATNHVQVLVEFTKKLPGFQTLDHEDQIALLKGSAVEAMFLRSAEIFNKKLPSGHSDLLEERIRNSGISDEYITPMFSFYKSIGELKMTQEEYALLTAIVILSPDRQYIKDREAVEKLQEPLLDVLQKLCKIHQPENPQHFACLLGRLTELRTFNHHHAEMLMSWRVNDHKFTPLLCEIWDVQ
# Assay: qHTS assay to identify small molecule agonists of the farnesoid-X-receptor (FXR) signaling pathway (AID 743220)
# Details: HEK293T FXR-UAS-bla, beta-lactamase FRET ratio, 16 h; activation: at 62.6 µM (top of the series) unless noted
# From the text: National Center for Advancing Translational Sciences [NCATS]
# NIH Chemical Genomics Center [NCGC]
# U.S. Environmental Protection Agency [EPA]
# National Institutes of Environmental Health Sciences [NIEHS]
# National Toxicology Program [NTP]
# U.S. Food and Drug Administration [FDA]
# The farnesoid-X-receptor (FXR), a nuclear hormone receptor, is highly expressed in liver, intestine, kidney and adrenal cortex. Natural ligands of FXR are the bile acids (Cholic acid, Chenodeoxy cholic acid etc). FXR is an important regulator of diverse metabolic pathways, including the bile acid homeostasis, lipid and glucose metabolisms. FXR regulates the expression of target genes by binding either as a monomer or as a heterodimer with the retinoid X receptor (RXR). Numerous studies have reported that FXR exerts protective function during cholestasis, diabetes, liver regeneration, and cancer. To identify compounds that activate FXR signaling, GeneBLAzer FXR-UAS-bla HEK 293T cell line (Invitrogen, Carlsbad, CA) containing a beta-lactamase reporter gene under the control of a UAS response element was used to screen the Tox21 10K compound library.
# Tox21 Assay Protocol Summary:
# FXR-bla cells were dispensed at 5000 cells/5uL/well in 1536-well black wall/clear bottom plates using a Multidrop Combi (Thermo Fisher Scientific, Waltham, MA) dispenser. After the assay plates were incubated at 37C and 5% CO2 for 5 h, 23 nL of compounds dissolved in DMSO, positive controls or DMSO only was transferred to the assay plate by a Pintool station (Kalypsys, San Diego, CA). The assay plates were incubated at 37C for 16 h. After 1 uL of LiveBLAzerTM B/G FRET substrate was added using a Bioraptr Flying Reagent Dispenser (FRD) workstation (Beckman Coulter, Indianapolis, IN), the plates were incubated at room temperature for 2 h, and fluorescence intensity was measured by an Envision plate reader (PerkinElmer, Shelton, CT).
# % is set by controls: 0 for no effect and ±100 for the full control effect; potency is the fitted concentration of half-maximal effect; tags give direction and shape of the fitted curve or compound fluorescence and quenching.
Structure (SMILES),Potency,activation
CC/C(=C(\c1ccc(O)cc1)c1ccc(OCCN(C)C)cc1)c1ccccc1,"inconclusive: 43.8 µM [falling, partial curve]",–
Cc1c2ccccc2c(C)c2c1ccc1ccccc12,active: 48.5 µM,inconclusive: -1.75%
O=C(Oc1cccc2cccnc12)c1ccccc1,inconclusive: 37.6 µM [single point],–
COc1ccc(CN2CCN(C(c3ccc(F)cc3)c3ccc(F)cc3)CC2)c(OC)c1OC,inconclusive: 29.8 µM,–
Oc1ccc(Cl)cc1Cc1cc(Cl)ccc1O,–,inconclusive: -3.65%
N=C1N=C(N)c2cc3ccccc3cc21,inconclusive: 23.2 µM,–
Oc1c(Cl)cc(Cl)c(Cl)c1Cc1c(O)c(Cl)cc(Cl)c1Cl,"inconclusive: 17.3 µM [rising, partial curve, poor fit]",inconclusive: 3.83%
CN(C)C(=O)C1(N2CCCCC2)CCN(CC[C@@]2(c3ccc(Cl)c(Cl)c3)CN(C(=O)c3ccccc3)CCO2)CC1,"inconclusive: 36.3 µM [falling, partial curve]",–
N#CSCSc1nc2ccccc2s1,"inconclusive: 43.6 µM [activator, partial curve]",–
CCOC(=O)C1=C(C)NC(C)=C(C(=O)OCC)C1c1ccccc1/C=C/C(=O)OC(C)(C)C,active: 33.5 µM,–
CN(C)[C@@H]1C(=O)C(C(N)=O)=C(O)[C@@]2(O)C(=O)C3=C(O)c4c(O)ccc(Cl)c4[C@@H](O)[C@H]3C[C@@H]12,"inconclusive: 33.5 µM [rising, partial curve, poor fit]",–
Cc1cc(Cc2cc(C)cc(C(C)(C)C)c2O)c(O)c(C(C)(C)C)c1,"inconclusive: 61.6 µM [falling, single point]",–
N#Cc1nc(Cl)c(Cl)c(Cl)c1Cl,"inconclusive: 8.71 µM [rising, full curve]",–
CC(C)(C)CC(C)(C)c1ccccc1O,"inconclusive: 62 µM [partial curve, poor fit]",–
CC1=C(/C=C/C(C)=C/C=C/C(C)=C/C=O)C(C)(C)CCC1,"inconclusive: 54.6 µM [falling, partial curve]",–
CCCCCCCCCCCCc1ccccc1O,inconclusive: 48.3 µM [partial curve] and inconclusive: 21.9 µM,–
O=C1C=CC(=O)N1c1ccccc1,inconclusive: 54.9 µM [single point],–

Structure (SMILES),Potency,activation
CC(=O)Nc1ccc(C(=O)CCl)cc1,inconclusive: 54.9 µM [fluorescent],inconclusive: 9.22% [at 81.1 µM]
CCCCC(CC)COC(=O)c1ccc(O)cc1 (stereo not given),inconclusive: 54.7 µM [single point],–
Oc1cc2ccccc2c2ccccc12,"inconclusive: 11 µM [rising, full curve]",–
CC(C)(C)c1cc(/C=C2\SC(=N)NC2=O)cc(C(C)(C)C)c1O,"inconclusive: 21.9 µM [rising, partial curve, poor fit]",–
Nc1nc(N)c2nc(-c3ccccc3)c(N)nc2n1,active: 49.5 µM and active: 21.1 µM,–
CC[C@H]1O[C@]2(CC[C@@H]1C)C[C@@H]1C[C@@H](C/C=C(\C)C[C@@H](C)/C=C/C=C3\CO[C@@H]4[C@H](O)C(C)=C[C@@H](C(=O)O1)[C@]34O)O2,"inconclusive: 43.3 µM [falling, partial curve]",–
CN(C)CCC=C1c2ccccc2CCc2ccccc21,inconclusive: 61.7 µM,–
O=C1OC(O)C(C(Cl)Cl)=C1Cl (stereo not given),inconclusive: 22.5 µM [activator],–
CCCCOCCOCCOCc1cc2c(cc1CCC)OCO2,"inconclusive: 49.1 µM [fluorescent, partial curve, poor fit]",–
Cc1cc(Br)ccc1NC(=O)CCl,"inconclusive: 21.9 µM [rising, partial curve]",–
CCCCCCCCCOC(=O)c1ccc(O)cc1,"inconclusive: 48.3 µM [falling, partial curve]",–
CC(C)(C)NC(=O)[C@H]1CC[C@H]2[C@@H]3CC[C@H]4NC(=O)C=C[C@]4(C)[C@H]3CC[C@]12C,"inconclusive: 15 µM [rising, full curve]",inconclusive: 0.898%
CCCCCC(=O)O[C@]1(C(C)=O)CC[C@H]2[C@@H]3CCC4=CC(=O)CC[C@]4(C)[C@H]3CC[C@@]21C,"inconclusive: 26.6 µM [fluorescent, partial curve]",inconclusive: -6.2%
NC(=O)C1(N2CCCCC2)CCN(CCCN2c3ccccc3CCc3ccc(Cl)cc32)CC1,inconclusive: 33.5 µM [single point],–
COc1cc(-c2nc(NC(=O)c3cc4cc(C)cc(C)c4n3CC(=O)O)sc2CCC2CCCCC2)c(OC)cc1Cl,"inconclusive: 50.4 µM [activator, single point]",–
O=C1c2ccccc2C(=O)N1SC1CCCCC1,–,inconclusive: -1.89%

# Same assay, conditions: HEK293T FXR-UAS-bla, beta-lactamase FRET ratio, 16 h; at 62.6 µM (top of the series)
row,Structure (SMILES),activation
1,Oc1ccc(Cl)cc1Cc1cc(Cl)ccc1O,inactive: 5.77%

# Same assay, conditions: HEK293T FXR-UAS-bla, beta-lactamase FRET ratio, 16 h; at 81.1 µM (top of the series)
row,Structure (SMILES),activation
1,Oc1ccc(Cl)cc1Cc1cc(Cl)ccc1O,inactive: 0.422%
